Test results published in patent US20130337564A1, “Treatment of Pluripotent Cells” (Janssen Biotech, Inc., priority 2012, published 2013).
The name of at least one read-out is uncertain.

Columns and labels:
[1] = test system: Sox17 expression in human embryonic stem cell line H1; test: Dose titration secondary assay: Sox17 intensity, H1; type: cell-based
Protocol: (§1) It was important to confirm the activity of hits identified from primary screening and further analyze the range of activity by dose titration. New samples of a selective subset of primary screening hits were obtained as dry powders, solubilized to make fresh stock reagents, and diluted into secondary confirmation assays to evaluate effects on human embryonic stem cells.
(§2) Culture of two human embryonic stem cells (H1 and H9) was conducted as described in Example 1. Colonies of cells were maintained in an undifferentiated, pluripotent state on Matrigel™ ([…]) coated polystyrene plastic, using a 1:30 dilution of Matrigel™ in DMEM:F12 to coat the surface. Cells were split by enzymatic passage every four days on average. Passage was performed by exposing cell monolayers to a solution of collagenase (1 mg/ml; Sigma-Aldrich) for 10 to 60 minutes at 37° C. followed by gentle scraping with a pipette tip to recover cell clusters. Clusters were allowed to sediment by gravity, then washed to remove residual collagenase. Cell clusters were split at a 1:3 ratio for maintenance culture or a 1:1 ratio for subsequent assay. The human embryonic stem cell lines were maintained at less than passage 50 and routinely evaluated for normal karyotypic phenotype and absence of mycoplasma contamination.
(§3) Cell clusters of the H1 or H9 human embryonic stem cell lines used in the assay were evenly resuspended in culture medium and plated onto Matrigel™-coated 96-well Packard VIEWPLATES (PerkinElmer) in volumes of 100 μl/well. MEF conditioned medium supplemented with 8 ng/ml bFGF was used for initial plating and expansion. Daily feeding was conducted by aspirating spent culture medium from each well and replacing with an equal volume of fresh medium. Cultures were allowed to expand one to three days after plating prior to initiating assay. Plates were maintained at 37° C., 5% CO2 in a humidified box for the duration of assay.
(§4) A subset of hits resulting from primary screening was used for follow-up study and subsequent secondary assays. Twenty compounds available as dry powders were solubilized as 10 mM stocks in DMSO and stored dessicated at […] until use Immediately prior to assay, compound stocks were diluted 1:1000 to make 10 μM test compound in DMEM:F12 base medium (Invitrogen) supplemented with 0.5% FCS (HyClone) and 100 ng/ml Activin A (R&D Biosystems). This was further diluted two-fold in series to make a seven point dilution curve for each compound, also in DMEM:F12 base medium with 0.5% FCS and 100 ng/ml Activin A.
(§5) Assay was initiated by aspirating culture medium from cell monolayers in each well followed by three washes in PBS to remove residual growth factors and serum. Test volumes of 100 μl per well were added back containing medium with 0.5% FCS and different concentrations of inhibitor compounds with 100 ng/ml Activin A, without Wnt3a. Positive control wells contained the same base medium with 0.5% FCS and with 20 ng/ml Wnt3a (R&D Biosystems) in the absence of test compound. Negative control wells contained the same base medium with 0.5% FCS, in the absence of Activin A, Wnt3a, or test compound. Assay wells were aspirated and fed again with identical concentrations of test compound or control solutions on day 2 of assay. On days 3 and 4, all assay wells were aspirated and fed with DMEM:F12 supplemented with 2% FCS and 100 ng/ml Activin A in the absence of both test compound or Wnt3a. Parallel negative control wells were maintained on days 3 and 4 in DMEM:F12 base medium with 2% FCS.
(§6) At the end of culture, cells in 96-well plates were washed twice with PBS then fixed with 4% paraformaldehyde at room temperature for 20 minutes, washed three times more with PBS, and then permeabilized with 0.5% Triton X-100 for 20 minutes at room temperature. After fixing and permeabilizing, cells were washed again three times with PBS and then blocked with 4% chicken serum (Invitrogen) in PBS for 30 minutes at room temperature. […]

[2] = test system: human embryonic stem cell line H9; test: Dose titration secondary assay: cell number, H9; type: cell-based
Protocol: as §1, §2, §3, §4, §5, §6

Row | SMILES | Sox17 Intensity ([1]; 0.156 μM compound) | Sox17 Intensity ([1]; 0.313 μM compound) | Sox17 Intensity ([1]; 0.625 μM compound) | Sox17 Intensity ([1]; 1.25 μM compound) | Sox17 Intensity ([1]; 2.5 μM compound) | Sox17 Intensity ([1]; 5 μM compound) | Sox17 Intensity ([1]; 10 μM compound) | Cell number ([2]; 0.156 μM compound) | Cell number ([2]; 0.313 μM compound) | Cell number ([2]; 0.625 μM compound) | Cell number ([2]; 1.25 μM compound) | Cell number ([2]; 2.5 μM compound) | Cell number ([2]; 5 μM compound) | Cell number ([2]; 10 μM compound)
1 | Cc1c[nH]c(-c2cnc(NCCNc3ccc(C#N)cn3)nc2-c2ccc(Cl)cc2Cl)n1 [Compound 221, 6-[(2-{[4-(2,4-Dichlorophenyl)-5-(4-methyl-1H-imidazol-2-yl)pyrimidin-2-yl]amino}ethyl)amino]pyridine-3-carbonitrile] | 1.039 | 1.058 | 1.016 | 1.028 | 0.842 | 0.785 | 0.140 | 0.699 | 0.887 | 1.100 | 1.195 | 1.108 | 0.583 | 0.049
2 | O=C1NC(=O)C(c2nn(CCO)c3ccccc23)=C1c1cn(-c2cncnc2)c2ccccc12 [Compound 226, 3-[1-(2-Hydroxyethyl)-1H-indazol-3-yl]-4-(1-pyrimidin-5-yl-1H-indol-3-yl)-1H-pyrrole-2,5-dione] | 0.782 | 0.780 | 0.786 | 0.686 | 0.605 | 0.402 | 0.267 | 0.174 | 0.208 | 0.282 | 0.222 | 0.296 | 0.336 | 0.377
3 | O=C1NC(=O)C(c2cn(CCCO)c3ncccc23)=C1c1cnccn1 [Compound 47, 3-[1-(3-Hydroxypropyl)-1H-pyrrolo[2,3-b]pyridin-3-yl]-4-pyrazin-2-yl-1H-pyrrole-2,5-dione] | 0.651 | 0.692 | 0.767 | 0.940 | 0.838 | 1.013 | 0.969 | 0.138 | 0.172 | 0.221 | 0.395 | 0.384 | 0.496 | 0.770
4 | CN(C)c1ccc(-n2cc(C3=C(c4nn(CCO)c5ccccc45)C(=O)NC3=O)c3cc(Cl)ccc32)cn1 [Compound 148, 3-{5-Chloro-1-[6-(dimethylamino)pyridin-3-yl]-1H-indol-3-yl}-4-[1-(2-hydroxyethyl)-1H-indazol-3-yl]-1H-pyrrole-2,5-dione] | 1.060 | 1.102 | 1.173 | 1.322 | 1.459 | 1.052 | 0.002 | 0.218 | 0.267 | 0.314 | 0.325 | 0.425 | 0.415 | 0.000
5 | O=C1NC(=O)C(c2cn(CCOCCOCCNC3CCCc4ccccc43)c3ccccc23)=C1c1cn(CCNC2CCCc3ccccc32)c2ccccc12 (centres unmarked) [Compound 144, 3-{1-[2-(1,2,3,4-Tetrahydronaphthalen-1-ylamino)ethyl]-1H-indol-3-yl}-4-(1-{2-[(2-{[2-(1,2,3,4-tetrahydronaphthalen-1-ylamino)ethyl]oxy}ethyl)oxy]ethyl}-1H-indol-3-yl)-1H-pyrrole-2,5-dione] | 0.508 | 0.742 | 0.978 | 0.678 | 0.270 | 0.000 | 0.000 | 0.133 | 0.264 | 0.248 | 0.090 | 0.001 | 0.002 | 0.007
6 | O=C1NC(=O)C(c2cn(-c3cccnc3)c3ccccc23)=C1c1cn(CCO)c2ccccc12 [Compound 206, 3-[1-(2-Hydroxyethyl)-1H-indol-3-yl]-4-(1-pyridin-3-yl-1H-indol-3-yl)-1H-pyrrole-2,5-dione] | 0.822 | 0.916 | 0.986 | 0.985 | 0.849 | 0.824 | 0.029 | 0.214 | 0.397 | 0.606 | 1.233 | 1.295 | 0.616 | 0.001
7 | O=C1NC(=O)C2=C1Nc1cccc(c1)OCCC/C=C\CCCOc1cccc2c1 [Compound 233, (11Z)-8,9,10,13,14,15-Hexahydro-2,6:17,21-di(metheno)pyrrolo[3,4-h][1,15,7]dioxazacyclotricosine-22,24(1H,23H)-dione] | 0.816 | 0.753 | 0.695 | 0.587 | 0.286 | 0.056 | 0.000 | 0.067 | 0.119 | 0.169 | 0.106 | 0.089 | 0.052 | 0.000
8 | OCCC#Cc1nc(-c2ccc(F)cc2)c(-c2ccncc2)n1CCCc1ccccc1 [Compound 158, 4-[4-(4-Fluorophenyl)-1-(3-phenylpropyl)-5-pyridin-4-yl-1H-imidazol-2-yl]but-3-yn-1-ol] | 1.034 | 1.231 | 1.241 | 1.122 | 1.120 | 1.006 | 0.074 | 0.070 | 0.057 | 0.100 | 0.044 | 0.033 | 0.017 | 0.004
9 | COC(=O)c1cncc(-n2cc(C3=C(c4nn(CCO)c5ccccc45)C(=O)NC3=O)c3cc(Cl)ccc32)c1 [Compound 150, Methyl 5-(5-chloro-3-{4-[1-(2-hydroxyethyl)-1H-indazol-3-yl]-2,5-dioxo-2,5-dihydro-1H-pyrrol-3-yl}-1H-indol-1-yl)pyridine-3-carboxylate] | 0.998 | 1.140 | 0.913 | 1.112 | 1.186 | 1.250 | 0.054 | 0.192 | 0.347 | 0.266 | 0.284 | 0.345 | 0.382 | 0.044
10 | CN(CCO)CCCn1nc(C2=C(c3cn(-c4cccnc4)c4ccccc34)C(=O)NC2=O)c2ccccc21 [Compound 198, 3-(1-{3-[(2-Hydroxyethyl)(methyl)amino]propyl}-1H-indazol-3-yl)-4-(1-pyridin-3-yl-1H-indol-3-yl)-1H-pyrrole-2,5-dione] | 0.941 | 0.803 | 0.793 | 0.954 | 1.023 | 1.004 | 0.889 | 0.069 | 0.063 | 0.138 | 0.307 | 0.140 | 0.147 | 0.164
